Assays:
[1] = tested on: M1619 melanoma cells; conditions: pretreatment 15 minutes, 250 μmol/L
[2] = tested on: membrane NAD(P)H oxidase of M1619 melanoma cells; assay: SOD-inhibitable lucigenin chemiluminescence (O2- generation) by 100,000 g plasma membrane fraction; assay type: biochemical, human; conditions: 300 units/ml, 15 μg membrane protein, 100 μmol/L NADPH, 5 minutes

Compound	Median fluorescence (DCFH oxidation to DCF) ([1]; untreated 685)	Mean fluorescence (DCFH oxidation to DCF) ([1]; untreated 754)	Lucigenin chemiluminescence of membranes + NADPH [2]
O=c1oc2ccccc2c(O)c1Cc1c(O)c2ccccc2oc1=O [dicumarol]	359	396	
superoxide dismutase [SOD]			significantly inhibited

Source: patent US6987127B2, “Regulation of NAD(P)H oxidase growth and transcription in melanoma cells” (Charlotte-Mecklenburg Hospital Authority, priority 2001, dated 2006)
